Literature values, collected in patent US10472391B2 (priority 2013, dated 2019).

System: S. aureus
Settings: mouse, in vivo; cited from earlier work

CNC(=O)[C@@H](NC(=O)[C@H](CCCc1ccccc1)[C@H](C)N(O)C=O)C(C)(C)C [GI254023X, (R)—N—((S)-3,3-dimethyl-1-(methylamino)-1-oxobutan-2-yl)-2-((S)-1-(N-hydroxyformamido)-ethyl)-5-phenylpentanamide]
effect on S. aureus disease: blunted S. aureus disease
